Assay results published in a collection of fitness landscapes (doi:10.1016/j.celrep.2020.107928).
Over roughly 81,000 sequences, “one-hybrid fitness for binding NBS DNA” has its median near -0.1; the highest 2% begin near 0.36. Some of the results follow.

B1: Caulobacter ParB omega fusion; a variant is named by its letters at X, in order, B8GW30 (parent)
chain: MESVVVGEPGMSEGRRGLGRGLSALLGEVDAAPAQAPGEQLGGSREAPIEILQRNPDQPRRTFREEDLEDLSNSIREKGVLQPILVRPSPDTAGEYQIVAGERAWRAAQRAGLKTVPIMVRELDDLAVLEIGIIENVQRADLNVLEEALSYKVLMEKFERTQENIAQTIGKSXSHVANXMRLLXLPDEVQSYLVSGELTAXHARAIAAAADPVALAKQIIEGGLSVRETEALARKAPNLSAGKSKGGRPPRVKDTDTQALESDLSSVLGLDVSIDHRGSTGTLTITYATLEQLDDLCNRLTRGI

Variants of: B1
Test: one-hybrid fitness for binding NBS DNA (the Noc-binding site; scaled: cognate 1, non-cognate 0); higher = stronger binding
Conditions: with NBS DNA site
How it was run: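 Selection: bacterial one-hybrid in E. coli USO, HIS3 reporter with the site 19 bp from the promoter, 48 hours at 37°C on M9-minus-histidine plus 0.1 mM IPTG and 5 mM 3-AT. Libraries were Caulobacter ParB with four randomised specificity codons, sequenced on Illumina before and after selection. Fitness is the rescaled log change in variant-to-wild-type read ratio, anchored to the cognate and non-cognate sites.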

one-hybrid fitness for binding NBS DNA, 0.348:
QAWR

one-hybrid fitness for binding NBS DNA, 0.771:
RRHR

one-hybrid fitness for binding NBS DNA, 0.244:
LRNR

one-hybrid fitness for binding NBS DNA, 0.201:
QKNC

one-hybrid fitness for binding NBS DNA, 0.218:
RKGM

one-hybrid fitness for binding NBS DNA, 0.541:
QAHR

one-hybrid fitness for binding NBS DNA, ≤ 0.2:
IKMS
NRMS
MYPK
EMKP
VTHC
STVG
LTQI
PRME
DSEC
YLFE
EVAC
HSIR
GCNT
DAFN
MFKR
TDST
GRDS
PHIC
MHRR
GVWK
HMTW
QSYE
PTRE
DRST
TEFG
APRF
LDFG
YRKA
RPLP
TPTV
VTWC
WACN
HVAR
HPKG
LYMV
HVLG
PMTR
SRGS
STET
ARFE
YLCR
MWPR
PNYS
DHWC
SQIG
NESV
VWSA
TIIQ
NFEC
GRIY
AKRP
TSDM
PMLF
NRPR
SQSG
ALNW
WTGG
GTNS
RTQQ
GFTS
RPFV
LDIR
EAFT
ANLR
QEKT
KPSW
SYTL
GEDK
TMMC
FRAN
EGRR
PSNI
KHEC
CAGR
MDVC
RMTF
RGDG
NYYW
AAYT
AVMD
SYIK
TTHR
MAPM
SQRI
AHWS
LYLN
LSKI
WSDR
RPPW
IMPI
IIEY
NPCL
SLGF
ISGW
RACP
YAKC
QSLV
SERK
QHHG
FMQS
FCDR
FPPV
TPFS
NLMS
NAVI
VRGI
PPHA
VGQG
QNFY
PNQC
THEC
AWVG
KPTR
QKND
SRPD
FLDD
YRSN
HREC
RWLH
MYAR
GLCS
RNRN
LVRW
KTGY
ITKT
QWQC
TLTM
RWHR
STTE
AHPT
PCDL
ITRW
LHTY
AQHC
NLPS
LGTS
SYGI
VYSV
MTTL
HLMR
ENGS
WEPT
TGHP
SVNL
CETL
YFQV
HFPF
PGPQ
AMVT
PHCN
HASC
FERS
QVKG
QLSD
QWMA
AFMG
WIDE
CMAT
ISAW
LGCI
LPLM
DRSV
DLYA
YPLH
PFRV
PMNT
NDLV
LIKH
SCYH
QITI
ETEC
QWSW
ALNP
YQRR
GPRI
VSVS
TRNL
YCMF
SIIA
VRDR
WWHS
PTFH
VMRA
NRSF
LSLI
HNTL
HLNT
MKRV
KTML
YCNR
LIVS
SQRY
IPWS
MNKC
ISQR
ELTQ
TCEC
VDTS
PSRV
ILLR
CAKR
LTRM
RPDN
RPLE
LKPR
EGPL
HLFG
TSHD
LRLA
RGPH
LSIF
ETRI
PEPT
RVHK
YATT
DLGS
EAKW
LVNC
WWAK
ATGR
EAHT
VLPK
LWNE
RCQM
KLLS
SKGD
KVKG
QAQW
MAVC
EQLF
PSKP
LSVT
YTAM
AGLM
ADCV
KWTC
MSRW
PDSN
FIWV
PAIK
RWFV
QWGC
MNHC
ICDG
LQAE
LSRN
WVPS
RISK
QMLL
DRKH
HDAW
DQTC
KTDS
SLRG
NRHL
KWAC
PTLW
TMSK
QQAQ
PSGR
RGYS
WGCV
RNYR
RMAD
TVME
RNCL
SNDC
NLHI
SSGD
RSNF
VANT
CIVT
FVTG
HPAS
MTET
PHSN
WKLG
ASGY
VTES
REHD
RMDA
CFRM
PSGP
PVRS
RFPY
AQPC
GCYG
VPFV
VFFC
SKKL
PSRT
ETVV
ARIA
TKTV
RKCG
LMFW

one-hybrid fitness for binding NBS DNA, 0.395:
RYCS

one-hybrid fitness for binding NBS DNA, 0.579:
QKRH

one-hybrid fitness for binding NBS DNA, 0.344:
QHRC

one-hybrid fitness for binding NBS DNA, 0.278:
RKHY
